Data as given in the supplement of paper PMC10126150.
Sequences with one replicate were seen in a single cluster, so their values are uncertain.

System: ATP
Test: switch fluorescence ratio, 500 uM ATP over buffer (Cy3 cluster intensity, sum of 5 cycles each) (fold (ratio)); higher = stronger signal-on switching upon ATP binding; sequences stand for … in TCGTCGGCAGCGTCAGATGTGTATAAGAGACAGTTTTTTTTTTTTTTTTTTTTTTTTT…TC
Conditions: aptamer strand: ATP DNA aptamer (quencher-CACCTGGGGGAGTATTGCGGAGGAAGG + anchor), 100 nM annealed; ATP concentration: 500 uM; one replicate
In short: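 Cy3-labelled switching-strand clusters on a modified Illumina MiSeq flow-cell were annealed to 100 nM quencher-labelled ATP aptamer, imaged in selection buffer, then imaged after 15 min with 500 uM ATP at 22 °C. Five buffer/ATP cycles ran, with NaOH stripping and re-annealing between them. The fluorescence ratio is summed target-cycle over summed buffer-cycle Cy3 intensity per cluster, averaged per switch-domain sequence. Clusters outside 100-1000 RFU were excluded.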
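Also: ATP exposure 15 min at 22 °C before imaging.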

| Sequence | switch fluorescence ratio |
| --- | --- |
| CATTAGTAAT | 1.05 |
| TATAAGCTAA | 1.03 |
| CCAATATGTG | 1.01 |
| CCTAGCTCCT | 1.12 |
| GGATTTTGCG | 1.08 |
| AAGCGGCGTG | 0.985 |
| ATCATATTAA | 0.986 |
| TGGTCTTCGA | 1.01 |
| CGGGCTTTTA | 0.988 |
| CAACTTACAG | 1.12 |
| GATATCTATG | 1.01 |
| AGGCGCTTTC | 1.4 |
| AGAAACGGGC | 0.828 |
| AGCGTTTTTC | 1.02 |
| TGGGATGTCC | 1.03 |
| ATTTTGAAGG | 0.975 |
| TGTTGTTCTT | 0.979 |
| AGGTGACAAT | 0.995 |
| CATAAGTCGG | 0.955 |
| GGGGGCCCTA | 0.976 |
| ATATTGCCTT | 0.978 |
| GGGGTAAACG | 1.1 |
| TAAGAACGGT | 0.965 |

| Sequence | switch fluorescence ratio |
| --- | --- |
| TGGATCCGGA | 1.09 |
| TCGCAGGTG | 2.55 |
| TCGGCACCGC | 1.04 |
| GCCCTCTTGG | 1.05 |
| ATTCTTTTTG | 0.958 |
| TTTGCGATGC | 2.24 |
| CGTTGGTGTA | 0.964 |
| ACGAAAGACA | 1.12 |
| AATAAATTGG | 0.959 |
| GAGTGAGGAA | 0.993 |
| TAACATGGG | 1.02 |
| GTACTACAGT | 1.04 |
| ACGCATTTGT | 1.13 |
| ACTACCCCGA | 1.03 |
| GTTCGACGCA | 1.5 |
| GGGTCGCGGC | 1.03 |
| GGTTACTTT | 1.01 |
| ACAATGGTTG | 0.967 |
| GGCTGTTGAA | 0.968 |
| TGGGGTCGGT | 1.26 |
| GATTAGGCTT | 0.978 |
| TGATCCACCG | 1.05 |
| GATTATTGAG | 0.963 |

| Sequence | switch fluorescence ratio |
| --- | --- |
| GATACAACAG | 1.22 |
| TAAGCCCACT | 0.994 |
| CTAAGCCGTC | 0.999 |
| CGATACACCT | 1.3 |
| TTATAATACC | 1.04 |
| TGGTCACCAT | 0.996 |
| GTAGTAAAGA | 1.2 |
| AGCGTTGCAC | 0.99 |
| TACATGTAGG | 1.06 |
| CTGTCGAAAC | 1.07 |
| TCTAGTCTC | 1.02 |
| TTTATGACAA | 1 |
| CGCTATCTTT | 1.04 |
| CCAAGGGTCC | 1.02 |
| GGTCTCTCTC | 1.02 |
| CGATGCTGAG | 0.976 |
| ACGATAATCA | 1.07 |
| GACCGTATGA | 1.09 |
| TGGAGCTCAG | 0.972 |
| GCTCAATGCG | 1.02 |
| GCAGCAGCCA | 1.02 |
| TGTACAGCGT | 1 |
| GTGAGGGTCT | 0.998 |

| Sequence | switch fluorescence ratio |
| --- | --- |
| AAAGGTATTA | 0.942 |
| CTTACGACTA | 1.16 |
| CGCGAAAAGC | 1.52 |
| GAAAGCGACG | 1.1 |
| ACGTATTTAC | 1.33 |
| AGATTGCGGC | 0.999 |
| CGTATTTTTG | 0.994 |
| AGTATGTAC | 1.06 |
| GTGAAGCGCG | 1 |
| ATGGTAGGAA | 0.974 |
| TTGGCTGTGA | 1.03 |
| AGTGGTCCGA | 0.982 |
| GACCTTCAGT | 1.01 |
| CGCCGGCCGG | 1.06 |
| TCGCGCTTG | 0.991 |
| TGCGGATGGC | 1.02 |
| AGCCTCGGGG | 0.947 |
| TAAGCGAAGG | 1.04 |
| TGCATCGGAA | 1.01 |
| AGGAGGTTTT | 1.02 |
| GGCGACTTAC | 1.12 |
| GCACTCTAGT | 1 |
| CTGACACGCG | 0.995 |

| Sequence | switch fluorescence ratio |
| --- | --- |
| CTCGGTCATG | 1.05 |
| ACAATCAGGC | 0.965 |
| CGTTGGGCCA | 0.899 |
| TAACGATACG | 1.2 |
| TTGCGGGACG | 1 |
| AGAAAAAACC | 1.08 |
| CATCCCCGT | 1.05 |
| AGTGACAGG | 0.989 |
| AGGGCCGACA | 0.999 |
| TAAAGCCGAA | 1.01 |
| TCCAACTTGG | 1.03 |
| GTTGCAACTT | 0.973 |
| GTGTAAAACA | 1.1 |
| CGCTTTGGAC | 1.99 |
| GGGATAATCG | 1.02 |
| GAACCCGAGT | 1.01 |
| ACTTCCTTCG | 5.24 |
| GGTCGTTATC | 0.982 |
| TATGTTCTTG | 0.972 |
| CGTTCTACTT | 1.01 |
| CATCAAGCTT | 1.12 |
| CTACTCGGAC | 1.16 |
| CAAAGAGGGC | 1.14 |

| Sequence | switch fluorescence ratio |
| --- | --- |
| TCAGTTCTTA | 1.03 |
| GTGTATCGA | 0.989 |
| GAGAGCTCT | 1.05 |
| TGCCGCGTTA | 1.09 |
| TCGCTCCACA | 1.28 |
| GGCTACAGAT | 0.994 |
| GACCCGCTGA | 1.59 |
| AGATCTTTCT | 1.01 |
| CGGTTTTGGT | 0.963 |
| TCGCACGACT | 1.46 |
| GACTTATA | 1.01 |
| TAAGGACCAG | 1.01 |
| GACGCCAGTC | 1.01 |
| AGAAGAAAAG | 0.987 |
| CGCCCGGCGG | 1.02 |
| ACGCATAAAG | 1.21 |
| CTCACGGATC | 1.34 |
| CGGTATCTTC | 0.967 |
| GACAACTGCG | 1 |
| TGACGATGG | 0.936 |
| TGCCTATTTT | 1.01 |
| AAAGAAACCT | 2.34 |
| GCTCGCCCAG | 3.54 |

| Sequence | switch fluorescence ratio |
| --- | --- |
| GCTTCACGC | 1.08 |
| TTTATGGAAA | 1.01 |
| CATATTTTCG | 1.03 |
| ACGGCATATC | 1.59 |
| GCGGGGGTAT | 0.973 |
| TTAGCTGGCT | 1.04 |
| CTCCATTTCA | 1.03 |
| ACACGAGTCT | 0.972 |
| TACGCATTA | 2.04 |
| GGCACGGGGT | 1.02 |
| TAGGATAACG | 1 |
| CAACCCAGCC | 1.12 |
| GGCACCTGTT | 0.982 |
| CTAGCTAATG | 0.981 |
| CTGCCTGGGG | 0.967 |
| TTGTTGAG | 0.994 |
| CGGCGAAAGT | 1.01 |
| AGTTCGGTT | 1.02 |
| GGCGGGCCCG | 0.982 |
